The other results are listed elsewhere or left out.
The sequences below were run on PfAP2-HC AP2 domain (GST-tagged) (assay: gcPBM binding intensity (ln(normalized median fluorescence intensity)); higher = stronger DNA binding).
Procedure, shortened: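 The highest Masliner-normalised natural-log median intensity across replicate spots of either probe orientation is reported as binding intensity. GST-tagged P. falciparum DNA-binding domains expressed in E. coli were applied for 1 h to an Agilent 4 × 180k array of primer-extended double-stranded 36-bp intergenic genomic probes plus negative controls, and bound protein was detected with Alexa488 anti-GST antibody and scanned at 488 nm.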

Sequence | gcPBM binding intensity (ln)
TTATATTTTATTATGTGTACGTATATAATATAATAT [XGTACX_site6230] | 9.6
AATCAAAAAGGAACCATAATATTACAACTATATATA [CACACA_negctrl_site381] | 9.61
TAAAACTTAATGTTTTGTACATATTCTTCTTTATTT [XGTACX_site4271] | 9.63
GCTTAGTTATATAACTGTACTATTTTTATTTATATG [XGTACX_site884] | 9.89
ATAAAGTAAGAAGAAATAATGATTTTCATGGAAAAC [XGTACX_negctrl_site322] | 9.71
AATAAGATAAGGAAAAGTACTTATAATTAAACTAAT [XGTACX_site1850] | 9.74
CTCATAGTTGGGTGCACACAAAAAATTAAAAAAATA [CACACA_site3032] | 9.95
AAATACATACATTAATGTACAAATAGAAACACTCTT [XGTACX_site1512] | 9.95
AAATATAAGTAAATAAATAAATATATAAATATATAA [TGCATGCA_negctrl_site441] | 9.71
TTTTTATTCGTTAAATGTACAAAAAAAATGTTATAT [XGTACX_site2804] | 9.32
ATACACTAGAAAATTTTATAGTATTATTAATGTTAA [GTGCAC_negctrl_site101] | 9.5
GATAAACCATATATAACACACATATGAATATTGCAA [CACACA_site6735] | 9.85
ATATCATATATAAGTCGTACGATGAATAGAATTTTT [XGTACX_site7586] | 9.88
CACCCATACAGACATACACACACATATATATTAATA [CACACA_site8077] | 10.2
CTTATACAAAAAAAAAGTACATAACATAATAAGAAT [XGTACX_site6782] | 9.78
ACAGATGATCAAAATTGTACAGAGTTATATTATATT [XGTACX_site4642] | 9.65
TTATTTAAAAATAGCACACATTATATATATATATAT [CACACA_site5556] | 9.74
CCATAATTATATGCCAGTACATATTTGTAACAAAAA [XGTACX_site851] | 9.58
TTTATTTTTCATTGGGGTACACAAGTTTATTTTATT [XGTACX_site4263] | 9.69
TAAGTAATAGTTTGTGCACACTCAAGTATATCATAT [CACACA_site4035] | 9.98
TATTATTCCATGTGAAGTACAGAAATATAAATAAAT [XGTACX_site5106] | 9.48
CTTTTAAAAAAATTCATGCACACGAAATAAAAAGCA [CACACA_site929] | 9.73
CAAAATATTTTTATAACACACATATATAGAATGTGC [CACACA_site1145] | 9.61

Sequence | gcPBM binding intensity (ln)
TATATATATATAACAACACACACAGATCATAAAACT [CACACA_site8670] | 10.6
TATTTTTTTTCGTAATGTACATAAAAAATGCAAAAA [XGTACX_site8491] | 9.43
ATTATATAATTTAATCGTACACAAATATTTGTTAGT [XGTACX_site5913] | 9.62
TTTTACTATACTTATGCACACAAGATAAATACATAT [CACACA_site5619] | 9.83
ATACCTCAAATTGATACACACAAAAAAAGTAAATTA [CACACA_site3134] | 9.8
CTATTTTAATATTTTACACACCATGTAAAATATATA [CACACA_site5732] | 9.65
TATCATCTTAATATCGTGCACATTTATAGAACGAAA [GTGCAC_site9992] | 9.41
ATATATATATATATATGTACACAGGACAATAATCCT [XGTACX_site6383] | 9.94
TATTAAAAGGTGAGTACACACATATATGTGTATATA [CACACA_site7070] | 10
TTTTTTTTTATAAATACACACGTACGGGTGCATAAC [CACACA_site8444] | 9.65
ATCATGAAATATATTTGTACACATAATAATATAATA [XGTACX_site8798] | 9.71
ATTTGGCAGAAACACACACACACACCCACCCACATA [CACACA_site589] | 10.5
GGAATAGTCGGGTGCATACACACCTTAAATATAATA [CACACA_site1081] | 9.59
AATCATATTAGTATGGTGCAATATATATATAAATAT [GTGCAC_site9800] | 9.69
AAAGAAAATTCAATAGTGCATAAAAATATATATGTT [GTGCAC_site9680] | 9.69
ACTAATTACTATAAAACACACATATATTTATTTATA [CACACA_site7263] | 9.82
CACATGTATTTATAGGTGCGTAAAAACACTTTATAT [GTGCAC_site9501] | 9.58
TTATAGAAACATTGGTGTACGATATTTACTTCTTTC [XGTACX_site7314] | 9.56
TTTTACTATACTTATGCACACAAGATATATACATAT [CACACA_site2968] | 10
TAAAAAAATTCATGCACACGAAATAAAAAGCACCTT [CACACA_site4667] | 9.94
AAACATAAATTTTATTGTACATTATATAGAATTTTC [XGTACX_site576] | 9.52
AATACATACATACATACACACATATATATATATTAT [CACACA_site3575] | 10.8
TTTTCATTTTTTCGTTGTACATAAATAATATATATT [XGTACX_site856] | 9.83

Sequence | gcPBM binding intensity (ln)
TTTTTTAAAAGATAATATTTTATTAATGTATTCTCA [GTGCAC_negctrl_site598] | 9.35
ATATATACATATAATTGTACTTGTGTTGTTTTTCTT [XGTACX_site1870] | 9.9
TTAACGCTTATTTTTTGTACTTATTTTATTTTAAAT [XGTACX_site3977] | 9.75
CAACATTAATATAAAGCACACATATATATAATATAT [CACACA_site8064] | 9.96
ACTCTATAATAAAATACACACAAGACTATCTAATAT [CACACA_site1796] | 9.92
TCTTTTTTTTTTTTTTTTTTTTTTTTTTTTTTTTTT [GTGCAC_negctrl_site18] | 9.12
ATTTTAATGACATATACACACAAAGGTTCATAACAA [CACACA_site5664] | 9.82
ATAAAACCAACATAGAGTACAGATCGACTATGTTTC [XGTACX_site4329] | 9.78
TTTTCTTTTTAAATTACACACACATATATATATGTA [CACACA_site9172] | 10.1
TGTAGATATTATATATGTACGCATATGAAATATATA [XGTACX_site1586] | 9.49
TAATTATATAAATATTGTACAAAAAAAATATATATA [XGTACX_site3137] | 9.66
AAAATATATAATATAACACACATATATTCTATATGG [CACACA_site4044] | 9.73
TTCAAAATATATATTTGTACATATAGGATCTTTTTC [XGTACX_site4500] | 9.54
GTAATATCAATATAAAGTACACACTATAGTATGTAT [XGTACX_site4714] | 9.87
TATATTCTTTTAAACAGTACACACACACATATATAT [XGTACX_site1701] | 11.1
AATATAAAAATATAAAAACACACGTAAAAAAATTTA [CACACA_site3399] | 9.82
AAAAAAATTAAAAATAAAGAAAAAAAAAAAAAAAAA [GTGCAC_negctrl_site401] | 8.88
AATATAAACCCAAACACACACATATATATATATATA [CACACA_site268] | 10.7
TTTTTTTTTTTGAGGAGGACACAAAAATATGCTACC [XGTACX_site756] | 9.32
TTTTATTTATAATATATACACACTAACATTATTTAT [CACACA_site1284] | 9.78
GAATATTTATCATGGGGTACCTTAAAAAAGGGAAAA [XGTACX_site298] | 9.55
ATATCTTAAATTATTTGTACATATATATATATATAT [XGTACX_site8034] | 9.81
AAAAAAAAAAAAAAAACACACATACACCCAGACACA [CACACA_site5807] | 11.3

Sequence | gcPBM binding intensity (ln)
ATACATATATAAATATGTACACACATATGTATGATC [XGTACX_site8219] | 9.98
GGAAACCCTCCCAAATGTACTTTTATAAAAAAATAC [XGTACX_site5502] | 9.48
TATACTCAGAAACACACACACACACCCAAAAAAAAA [CACACA_site4434] | 11.1
TTTGCCATAAAACACACACACATGTAAACCCCCTTT [CACACA_site1646] | 10.2
ATATAAGTACATATAACACACATATATTATAAGTAT [CACACA_site2647] | 9.83
GATATAAGGGTATGAAGTACATAAATATTTTATGCT [XGTACX_site1886] | 9.68
TTTTTATTTTTTGTCTGTACATATATAAATTTATTA [XGTACX_site1525] | 9.67
TATGCACGCGAACACACACACACAACTAAAAAATAA [CACACA_site7251] | 10.3
ATGTAAGTATAAAATGTGCGCATTGGGAATGAGGAC | 10.7
ATATATATATATGTATGTATATATATATGTTTGATT [XGTACX_negctrl_site62] | 9.84
ATGAATTAACCTAATCGTACAATAAATATTATTATA [XGTACX_site596] | 9.54
ACTATTTAAAAATATGGTACACGAAATTCAAGAGAA [XGTACX_site5903] | 9.72
TTGTTTATGTGAGAAGTGCATTTTTTCGTTCATGTA | 9.72
TTTTTTATTTTGTTGAAGCAATGAAAATGAATGAAA [TGCATGCA_negctrl_site495] | 9.35
ATATGTTTAAAAATATGTACGTATTATATATTCTAT [XGTACX_site1358] | 9.76
AAGTTTTATATTTATTAAATTTTTTTTTTTCCTTTT [XGTACX_negctrl_site184] | 9.2
TACGCGAAATGAATATGTACATATATGAGGGCATAT [XGTACX_site4293] | 9.75
TTTATATAAGGACATGCATGCTATTATTAAATATAT [TGCATGCA_site1011] | 9.72
TAATATATAAATATATGTACATAATAAATAGGATAT [XGTACX_site3661] | 9.98
ACTTCATAGGTTACCTGTACATATAAGGAGTTATCA [XGTACX_site4110] | 9.53
